{
  "source": "ChEMBL document CHEMBL4888484",
  "about": "“Replenishing the malaria drug discovery pipeline: Screening and hit evaluation of the MMV Hit Generation Library 1 (HGL1) against asexual blood stage Plasmodium falciparum ,using a nano luciferase reporter read-out” (2022)",
  "note": "The whole screen tested about 4,800 compounds, of which about 420 (8.8%) showed an effect of 50% or more. The list shows a part of the results.",
  "data": [
    {"tested_on": "Plasmodium falciparum", "test": "Confirmatory screen in NF54 nanoGlo assay, in single point, at 2uM, 72h", "assay_type": "functional, Erythrocyte", "settings": "timepoint 72 hour", "units": {"% Inhibition": "%"}, "values": [
      {"smiles": "COc1ccc(NC(=O)N2C[C@@H]3C[C@H](NS(=O)(=O)c4ccccc4)[C@H]2C3)c(C)c1", "% Inhibition": -5},
      {"smiles": "Cc1ccc2c(c1)N(C(=O)c1c[nH]c(C)cc1=O)CCC2", "% Inhibition": -6},
      {"smiles": "O=C(c1ccc(-n2cccn2)cc1)N1CCN(c2ccccc2O)CC1", "% Inhibition": -8},
      {"smiles": "CCN1C(=O)c2ccccc2N2C(=O)CC[C@@]12C(=O)Nc1cccc(OC)c1", "% Inhibition": 92},
      {"smiles": "C[C@H]1CN(Cc2ccccc2)CC2(CCN(C(=O)N(C)C)CC2)O1", "% Inhibition": 0},
      {"smiles": "COc1cccc(Cn2c(=O)c3sccc3n(CC(=O)NCc3ccc(F)cc3F)c2=O)c1", "% Inhibition": 5},
      {"smiles": "CCOC(=O)C1=CS/C(=C2/C(=S)C(C)(C)Nc3c(OCC)cccc32)S1", "% Inhibition": -6},
      {"smiles": "CN1CCN(C(=O)[C@H](C(=O)c2cccc(Cl)c2)n2ccccc2=O)CC1", "% Inhibition": -16},
      {"smiles": "Cc1[nH]nc(C(F)(F)F)c1NS(=O)(=O)c1cccs1", "% Inhibition": 4},
      {"smiles": "c1ccc2oc(N3CCCCCCC3)nc2c1", "% Inhibition": -5},
      {"smiles": "Cc1cc(=O)n(CC(=O)Nc2cc(C)on2)c(-c2ccc(F)cc2)n1", "% Inhibition": -5},
      {"smiles": "COc1cccc(-c2cn(C)c3c(=O)n(CC(=O)Nc4ccc(C(F)(F)F)cc4)cnc23)c1", "% Inhibition": 2},
      {"smiles": "COc1ccc(Cl)cc1C(=O)Nc1cc(C2CC2)nn1-c1nc(C)cc(=O)[nH]1", "% Inhibition": 66},
      {"smiles": "Cc1c(NC(=O)c2n[nH]cc2Br)c(=O)n(-c2ccccc2)n1C", "% Inhibition": -4},
      {"smiles": "Cc1cc(C(=O)N[C@@H](C)C(=O)N2CCCCC2)c2nc3n(c2n1)CCCCC3", "% Inhibition": -2},
      {"smiles": "COc1cccc(CN2CCN(c3ccc(F)cc3)C2=O)c1", "% Inhibition": -6},
      {"smiles": "Cc1nn2cnnc2c(C)c1C/C=C/c1ccccc1", "% Inhibition": -6},
      {"smiles": "CCC(C)(C)c1ccc(OCC(=O)Nc2cccc(NC(=O)C3=NN(c4c(Cl)cc(Cl)cc4Cl)C(=O)C3)c2)c(C(C)(C)CC)c1", "% Inhibition": -8},
      {"smiles": "COC(=O)C[C@H](NC(=O)c1ccc2ccccc2n1)C1CC1", "% Inhibition": -10},
      {"smiles": "COc1ccc(-c2c(-c3cccc(OC)c3)[nH]c3c2c(=O)[nH]c(=O)n3C)cc1", "% Inhibition": 74},
      {"smiles": "Cc1cc(Cl)cc2c1NC(=O)C21NC(CCC(=O)O)[C@H]2C(=O)N(Cc3ccccc3Cl)C(=O)[C@H]21", "note": "(some centres not stated)", "% Inhibition": -19},
      {"smiles": "Cc1n[nH]c([C@H]2CN(C(=O)OCC(F)(F)F)C[C@@H]2C2CC2)n1", "% Inhibition": 1},
      {"smiles": "O=C(NC[C@H](O)c1ccc(Cl)s1)c1ccsc1", "% Inhibition": 1},
      {"smiles": "OCCN(Cc1cccnc1)c1cc(-c2ccccc2)nc2ncnn12", "% Inhibition": 5},
      {"smiles": "CCc1ccc(/C=C/c2c[nH]c3ccccc23)[n+](CC)c1", "% Inhibition": 89},
      {"smiles": "CCn1cc(-c2nc(-c3ccccc3C)no2)c(=O)c2cc(F)c(N3CCOCC3)cc21", "% Inhibition": 37},
      {"smiles": "COC(=O)C1C2CCC(C2)C1NC(=O)c1ccncc1", "note": "(configuration not stated)", "% Inhibition": -1},
      {"smiles": "Cc1cccc(NC(=O)c2cc(Cl)c[nH]2)n1", "% Inhibition": 1},
      {"smiles": "COc1nn(C)cc1C(=O)N1CCC[C@H](Oc2cccnn2)C1", "% Inhibition": 1},
      {"smiles": "CCCN1C(=O)c2ccccc2N2C(=O)CC[C@@]12C(=O)Nc1ccccc1", "% Inhibition": 91},
      {"smiles": "CCC(=O)Nc1ccc(Oc2c(C)c(C(=O)O)nn2-c2ccccc2CC)c(S(=O)(=O)NCC(C)C)c1", "% Inhibition": 5},
      {"smiles": "CCNC(=O)c1csc(COc2ccc3c(c2)[C@H](c2ccc(C)cc2)N(C(=O)CC(C)C)CC3)n1", "% Inhibition": 36},
      {"smiles": "CC(=O)N1C(C(=O)O)Cc2c([nH]c3ccccc23)C1c1ccc2c(c1)OCO2", "note": "(configuration not stated)", "% Inhibition": 2},
      {"smiles": "O=C(Nc1[nH]c(=O)ncc1F)c1cc(F)c(F)cc1Br", "% Inhibition": 95},
      {"smiles": "CNC(=O)C(c1ccccc1)C(C(=O)NC)c1cccc2ccccc12", "note": "(configuration not stated)", "% Inhibition": -1},
      {"smiles": "C[C@@H](CCc1ccccc1)NC(=O)c1cc2c(Cl)ccc3c2n1CCO3", "% Inhibition": 7},
      {"smiles": "CC[C@](O)(C(=O)N(C)Cc1ncon1)c1cccc(Cl)c1", "% Inhibition": -11},
      {"smiles": "O=C(NCCCn1cccn1)[C@H]1CN(S(=O)(=O)c2cccnc2)CC12CCCCC2", "% Inhibition": 2},
      {"smiles": "COc1c(O)ccc2c(=O)c3c(O)cc(O)c(OC)c3n(C)c12", "% Inhibition": -3},
      {"smiles": "CCn1c(=O)c(N2CCC[C@H](C(=O)NCc3cccc(C)c3)C2)nc2ccccc21", "% Inhibition": 0},
      {"smiles": "Cc1cc(NCCc2nccn2C)ncn1", "% Inhibition": -15},
      {"smiles": "c1cn(C[C@@H]2CCCN2c2nc(C3CCCC3)ns2)nn1", "% Inhibition": -11},
      {"smiles": "COC1CCCCC1NC(=O)c1ccc(-c2noc(C(F)(F)F)n2)cc1", "note": "(configuration not stated)", "% Inhibition": -1},
      {"smiles": "CC[C@@]1(C)CCCN(C(=O)Cc2c(C)noc2Cl)C1", "% Inhibition": 84},
      {"smiles": "Cc1cnc(NC(=O)C2CCC(=O)N(C)C2c2cccc(F)c2)s1", "note": "(configuration not stated)", "% Inhibition": -5},
      {"smiles": "CC1CCC(NC(=O)N2CCC(OC[C@H]3CCCO3)CC2)CC1", "note": "(some centres not stated)", "% Inhibition": -7},
      {"smiles": "CCOC(=O)c1nc(-c2cccnc2)cs1", "% Inhibition": -12},
      {"smiles": "Cn1c(C(=O)N2CC[C@H](N)C2)ccc1-c1cccc(Br)c1", "% Inhibition": 0},
      {"smiles": "O=C(Nc1cccc(C(F)(F)F)c1)C(Oc1ccccc1)Oc1ccccc1", "% Inhibition": -20},
      {"smiles": "COc1ccc(CNC(=O)Nc2ccc3c(c2)N(C(=O)c2ccccc2)CCC3)cc1OC", "% Inhibition": 25},
      {"smiles": "O=S(=O)(c1ccc2nncn2c1)N(Cc1cccc(Cl)c1)c1ccccc1", "% Inhibition": 1},
      {"smiles": "CC(C)(C)N(Cc1ccc(F)cc1)C(=O)[C@H]1CCOC1", "% Inhibition": -1},
      {"smiles": "C#CCN1C(=O)N[C@@](CC)(C(C)C)C1=O", "% Inhibition": 10},
      {"smiles": "COc1ccccc1CNC(=O)c1nnn(-c2ccc3noc(-c4ccc(Cl)cc4)c3c2)c1C", "% Inhibition": -1},
      {"smiles": "Cc1cccc(CNC(=O)c2n[nH]c3c2CN(C(=O)c2ccoc2)CC3)c1", "% Inhibition": -8},
      {"smiles": "O=C(O)c1ccc(NS(=O)(=O)c2cc(Cl)ccc2OC[C@H]2CCCCO2)cc1", "% Inhibition": 5},
      {"smiles": "FC(F)(F)C1CN(c2nc(-c3ccccn3)nc3c2CCC3)C1", "% Inhibition": 67},
      {"smiles": "O=C1CN(S(=O)(=O)c2ccc(C(F)(F)F)cc2)C2(CCCCC2)CN1CC1CC1", "% Inhibition": -10},
      {"smiles": "CC(C)(C)n1nc2nc(NCCN3CCCCC3)nc(-c3ccc(F)c(Cl)c3)c2c1N", "% Inhibition": 62},
      {"smiles": "Cc1ccc(Nc2nc(C)c(C(=O)NCc3cccc(Br)c3)s2)c(C)c1", "% Inhibition": -13},
      {"smiles": "COc1cccc(COc2cccc(Cl)c2CNc2nnc(C(F)(F)F)o2)c1", "% Inhibition": -1},
      {"smiles": "O=C(NCCOc1ccccc1)c1ccc(C(=O)NCCOc2ccccc2)s1", "% Inhibition": 7}
    ]}
  ]
}
